These are yes or no findings as the source states them, for the method shown. In cells and extracts the contact can be indirect. Some results given as binding are weak or reduced against the parent protein; the word gives no strength. Sequences can lack the tags named with a protein.
Experiments:
Assay in all cases: co-IP; extracts of HeLa cells overexpressing EGFP or EGFP-tagged p31^comet constructs (adenovirus); NP-40 lysis buffer (50 mM Hepes pH 7.4, 250 mM NaCl, 1% NP-40); anti-GFP antibody on agarose beads, 4 h at 4°C; western blotting with anti-Mad2 and anti-GFP antibodies
[1] = target: T1, EGFP-tagged full-length p31^comet (human) (UniProt Q15013)
T1 sequence: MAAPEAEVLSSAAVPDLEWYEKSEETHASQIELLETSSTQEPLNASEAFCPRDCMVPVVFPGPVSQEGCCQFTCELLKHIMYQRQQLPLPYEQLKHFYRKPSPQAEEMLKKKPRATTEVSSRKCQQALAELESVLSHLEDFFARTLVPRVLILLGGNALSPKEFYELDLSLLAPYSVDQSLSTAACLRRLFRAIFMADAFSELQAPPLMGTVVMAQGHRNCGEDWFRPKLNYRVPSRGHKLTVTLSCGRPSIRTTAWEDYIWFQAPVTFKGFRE

The chains behind the UniProt entries cited, without tags or fusion partners.
UniProt Q13257: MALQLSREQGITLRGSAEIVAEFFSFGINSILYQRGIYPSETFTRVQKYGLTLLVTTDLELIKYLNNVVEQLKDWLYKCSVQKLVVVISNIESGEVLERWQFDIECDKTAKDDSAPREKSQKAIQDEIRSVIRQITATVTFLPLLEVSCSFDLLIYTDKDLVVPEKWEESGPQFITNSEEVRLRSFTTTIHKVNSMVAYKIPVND

[2] = target: T2, EGFP-tagged p31^comet fragment A (31-274) (human) (UniProt Q15013)
T2 sequence: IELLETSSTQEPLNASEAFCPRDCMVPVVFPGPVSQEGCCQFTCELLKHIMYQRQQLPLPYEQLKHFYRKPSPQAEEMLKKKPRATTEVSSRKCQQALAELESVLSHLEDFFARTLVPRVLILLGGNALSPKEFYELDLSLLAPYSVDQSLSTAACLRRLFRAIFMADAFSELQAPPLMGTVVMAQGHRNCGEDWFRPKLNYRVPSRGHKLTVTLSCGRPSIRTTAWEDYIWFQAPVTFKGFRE

[3] = target: T3, EGFP-tagged p31^comet fragment B (55-274) (human) (UniProt Q15013)
T3 sequence: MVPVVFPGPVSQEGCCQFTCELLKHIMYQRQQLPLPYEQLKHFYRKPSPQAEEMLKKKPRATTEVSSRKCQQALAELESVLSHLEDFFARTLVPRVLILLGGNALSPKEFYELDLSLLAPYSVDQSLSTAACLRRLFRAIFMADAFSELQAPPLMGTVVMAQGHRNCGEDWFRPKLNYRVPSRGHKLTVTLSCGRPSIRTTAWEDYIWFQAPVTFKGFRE

[4] = target: T4, EGFP-tagged p31^comet fragment C (81-274) (human) (UniProt Q15013)
T4 sequence: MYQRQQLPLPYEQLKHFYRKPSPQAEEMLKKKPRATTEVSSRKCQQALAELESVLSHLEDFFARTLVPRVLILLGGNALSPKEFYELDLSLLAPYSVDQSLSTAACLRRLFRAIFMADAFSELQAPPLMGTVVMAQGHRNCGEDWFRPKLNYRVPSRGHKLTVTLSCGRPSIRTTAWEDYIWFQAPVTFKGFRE

[5] = target: T5, EGFP-tagged p31^comet fragment D (108-274) (human) (UniProt Q15013)
T5 sequence: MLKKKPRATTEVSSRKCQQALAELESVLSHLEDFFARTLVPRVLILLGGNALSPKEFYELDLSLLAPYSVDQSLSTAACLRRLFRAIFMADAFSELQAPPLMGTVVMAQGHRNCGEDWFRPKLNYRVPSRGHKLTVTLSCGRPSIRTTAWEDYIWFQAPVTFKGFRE

Mad2 protein (from UniProt Q13257 1-205)
binding [1]: binds
binding [2]: binds
binding [3]: binds
binding [4]: no binding
binding [5]: no binding

— article PMC3824705
